Experimental data: article PMC11722347 (bioRxiv, 2025)

Target: histone H4 (Xenopus laevis), in the nucleosome (Xenopus laevis, UniProt P62799)
Experiment: cryo-EM structure

B1: human SNF2H (enzyme)
chain: MSSAAEPPPPPPPESAPSKPAASIASGGSNSSNKGGPEGVAAQAVASAASAGPADAEMEEIFDDASPGKQKEIQEPDPTYEEKMQTDRANRFEYLLKQTELFAHFIQPAAQKTPTSPLKMKPGRPRIKKDEKQNLLSVGDYRHRRTEQEEDEELLTESSKATNVCTRFEDSPSYVKWGKLRDYQVRGLNWLISLYENGINGILADEMGLGKTLQTISLLGYMKHYRNIPGPHMVLVPKSTLHNWMSEFKRWVPTLRSVCLIGDKEQRAAFVRDVLLPGEWDVCVTSYEMLIKEKSVFKKFNWRYLVIDEAHRIKNEKSKLSEIVREFKTTNRLLLTGTPLQNNLHELWSLLNFLLPDVFNSADDFDSWFDTNNCLGDQKLVERLHMVLRPFLLRRIKADVEKSLPPKKEVKIYVGLSKMQREWYTRILMKDIDILNSAGKMDKMRLLNILMQLRKCCNHPYLFDGAEPGPPYTTDMHLVTNSGKMVVLDKLLPKLKEQGSRVLIFSQMTRVLDILEDYCMWRNYEYCRLDGQTPHDERQDSINAYNEPNSTKFVFMLSTRAGGLGINLATADVVILYDSDWNPQVDLQAMDRAHRIGQTKTVRVFRFITDNTVEERIVERAEMKLRLDSIVIQQGRLVDQNLNKIGKDEMLQMIRHGATHVFASKESEITDEDIDGILERGAKKTAEMNEKLSKMGESSLRNFTMDTESSVYNFEGEDYREKQKIAFTEWIEPPKRERKANYAVDAYFREALRVSEPKAPKAPRPPKQPNVQDFQFFPPRLFELLEKEILFYRKTIGYKVPRNPELPNAAQAQKEEQLKIDEAESLNDEELEEKEKLLTQGFTNWNKRDFNQFIKANEKWGRDDIENIAREVEGKTPEEVIEYSAVFWERCNELQDIEKIMAQIERGEARIQRRISIKKALDTKIGRYKAPFHQLRISYGTNKGKNYTEEEDRFLICMLHKLGFDKENVYDELRQCIRNSPQFRFDWFLKSRTAMELQRRCNTLITLIERENMELEEKEKAEKKKRGPKPSTQKRKMDGAPDGRGRKKKLKL
binding result: binds
